Measurements: PubChem BioAssay AID588591 (National Center for Advancing Translational Sciences (NCATS), 2011)
Among all 390,000 compounds or so, about 4,700 (1.2%) were called active. The shares of active, inactive and inconclusive entries below differ from those in the screen. Calls follow the shape of the dose curve; as a rule, active = well fitted inhibition curve with a large enough effect; inconclusive = small, poorly fitted or top-dose-only effect, or another doubt; inactive = no such curve, though single readings can be large or run the other way. Where the call is inconclusive, the potency comes from a doubtful curve fit.

What follows are molecules tested against DNA polymerase eta (Homo sapiens) (UniProt Q9Y253) (assay: qHTS for Inhibitors of Polymerase Eta). Conditions: recombinant Pol eta, fluorescent DNA replication assay; series mostly up to 114 µM; activity change, negative = inhibition: at the top concentration.
Sequence of UniProt Q9Y253 (Q9Y253 whole entry, looked up): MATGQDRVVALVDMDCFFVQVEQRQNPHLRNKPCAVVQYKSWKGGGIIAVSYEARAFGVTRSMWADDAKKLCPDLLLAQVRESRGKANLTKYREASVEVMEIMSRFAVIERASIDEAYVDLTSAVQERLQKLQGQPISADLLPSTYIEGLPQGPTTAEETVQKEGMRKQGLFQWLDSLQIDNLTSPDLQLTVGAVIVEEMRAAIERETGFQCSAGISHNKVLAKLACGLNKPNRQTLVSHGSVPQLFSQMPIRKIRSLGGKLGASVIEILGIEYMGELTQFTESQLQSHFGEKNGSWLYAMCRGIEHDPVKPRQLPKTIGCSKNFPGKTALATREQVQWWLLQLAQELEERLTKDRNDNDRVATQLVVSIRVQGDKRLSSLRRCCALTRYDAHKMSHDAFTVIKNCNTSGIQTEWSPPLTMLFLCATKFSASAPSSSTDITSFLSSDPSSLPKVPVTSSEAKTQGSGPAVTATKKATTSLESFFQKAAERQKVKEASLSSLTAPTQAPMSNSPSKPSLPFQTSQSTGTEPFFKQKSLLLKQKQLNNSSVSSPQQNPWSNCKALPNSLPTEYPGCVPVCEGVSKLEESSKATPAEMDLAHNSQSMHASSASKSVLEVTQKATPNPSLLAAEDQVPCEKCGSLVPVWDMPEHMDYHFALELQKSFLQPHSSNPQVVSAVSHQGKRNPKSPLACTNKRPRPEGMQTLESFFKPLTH
Summary of the method: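 Pol eta (10 nM) was preincubated with compounds for 15 min at room temperature, after which fluorescent replication substrate (50 nM final) was added to start the reaction. Fluorescence was read kinetically at 0 and 10 min.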
% is scaled to controls: 0 for no effect and ±100 for the full control effect; potency is read from the fitted curve at half-maximal effect; tags tell the direction and shape of the fitted curve.

Structure (SMILES) | Potency | activity change, negative = inhibition
Cc1ccccc1NC(=O)CCC(=O)N/N=C/c1ccncc1 | inconclusive: 89.1 µM [inhibitor, partial curve, poor fit] | 
COc1ccc(C(=O)Nc2nnc(-c3ccccc3)s2)cc1 | inconclusive: 10 µM [inhibitor, partial curve] | 
COc1ccc(-c2cc(=O)oc3c(C)c(O)ccc23)cc1 | inconclusive: 39.8 µM [inhibitor, partial curve, poor fit] | 
Cc1ccnc2c(N3C(=O)C4C5C=CC(C5)C4C3=O)cccc12 (stereo not given) | inconclusive: 17.8 µM [inhibitor, partial curve, poor fit] | 
CCOCCCNCc1cn(-c2ccc(F)cc2F)nc1-c1ccccc1C | inconclusive: 89.1 µM [inhibitor, partial curve, poor fit] | 
N#C/C(=C/c1ccc(O)c([N+](=O)[O-])c1)C(=O)Nc1ccccc1 |  | inactive: -14.9%
CC(=O)c1c(COC(=O)c2ccncc2)nc2ccccc2[n+]1[O-] | inconclusive: 12.6 µM [inhibitor, full curve, poor fit] | 
COc1ccc(C(C)C)cc1S(=O)(=O)NC1CCCC1 |  | inactive: 0.488%
CCN(CC)CCNS(=O)(=O)c1ccc2[nH]cc(C(=O)O)c(=O)c2c1 | active: 22.4 µM | 
O=C(Nc1cccc(NC(=O)c2ccc(-c3ccc(Br)cc3)o2)c1)c1ccccc1 | inconclusive: 17.8 µM [inhibitor, partial curve, poor fit] | 
CC1=C(SCc2ccccc2)C(=O)c2ccccc2C1=O | active: 31.6 µM | 
Cc1ccc(C)c(N2CCN(C(=O)c3nn(C)c4c3CS(=O)(=O)c3ccccc3-4)CC2)c1 | inconclusive: 89.1 µM [inhibitor, partial curve, poor fit] | 
BrC(=C\c1ccccc1)/C=N/Nc1ccc2nncn2n1 | active: 50.1 µM | 
CC1(C)C(=O)Nc2ccccc2N1C(=O)COC(=O)c1cccnc1 | inconclusive: 50.1 µM [inhibitor, partial curve] | 
CN(C)c1nc(=NCc2ccco2)ss1 |  | inactive: -20%
O=S(=O)(Nc1ccc(-c2nc3cccnc3s2)cc1)c1ccc(Cl)s1 | inconclusive: 39.8 µM [inhibitor, partial curve, poor fit] | 
O=C(CSc1ccccn1)Nc1ccc2c(c1)C(=O)c1ccccc1C2=O | inconclusive: 8.91 µM [inhibitor, full curve, poor fit] | 
CC(C)(C)CC(=O)Nc1cc(S(=O)(=O)N2CCCCCC2)ccc1Cl | inconclusive: 89.1 µM [inhibitor, partial curve, poor fit] | 
O=C1C(=O)N(Cc2ccco2)C(c2cccc(Cl)c2)/C1=C(\O)c1ccc2c(c1)OCCO2 (stereo not given) | inconclusive: 22.4 µM [inhibitor, partial curve] | 
COC(=O)CCCC1=CC2=CC(=O)C(C)(OC(=O)c3cccs3)C(=O)C2=CN1Cc1ccc2c(c1)OCO2 (stereo not given) | inconclusive: 15.8 µM [inhibitor, full curve] | 
C=CC1=C(C(=O)O)N2C(=O)C(NC(=O)Cc3ccccc3)C2SC1 (stereo not given) | active: 22.4 µM | 
CCN(CC(=O)Nc1ccc(S(N)(=O)=O)cc1)S(=O)(=O)c1cc(C)ccc1OC | inconclusive: 0.251 µM [inhibitor, partial curve, poor fit] | 

Structure (SMILES) | Potency | activity change, negative = inhibition
Fc1ccc(Nc2c(-c3ccco3)nc3ccccn23)cc1 | inconclusive: 100 µM [inhibitor, partial curve, poor fit] | 
O=[N+]([O-])c1cc2c(c3cccnc13)COCO2 | active: 10 µM | 
CCc1ccc(-c2nc(CN3CCC(C(=O)N4CCN(c5ccccc5)CC4)CC3)c(C)o2)cc1 | inconclusive: 31.6 µM [inhibitor, partial curve, poor fit] | 
CCOC(=O)c1cnn(-c2nc(SC)nc3sc4c(c23)CCC4)c1N | inconclusive: 11.2 µM [inhibitor, partial curve] | 
N#CC1=C(N)n2c(s/c(=C\c3cccs3)c2=O)=C(C#N)C1c1cccs1 (stereo not given) | active: 44.7 µM | 
Cc1ccc(NC(=O)c2ccco2)c([N+](=O)[O-])c1 |  | inactive: -9.43%
CCOC(=O)Cc1c(C)nc2c(-c3cccc(Br)c3)cnn2c1C | inconclusive: 39.8 µM [inhibitor, partial curve, poor fit] | 
CCOC(=O)c1cc2c(=O)n3ccccc3nc2n(Cc2ccco2)c1=NC(=O)c1ccc(OC)cc1OC | inconclusive: 63.1 µM [inhibitor, partial curve, poor fit] | 
N#C/C(=C/c1ccc(OCc2ccc(C(=O)O)cc2)cc1)C(=O)Nc1ccccc1 | inconclusive: 89.1 µM [inhibitor, partial curve, poor fit] | 
C=CC[C@@H](Cc1ccc(F)cc1)C(=O)OC[C@H]1CCCN1C(=O)[C@@H](CC=C)CC(=O)N[C@H](CO)Cc1ccccc1 | inconclusive: 70.8 µM [inhibitor, partial curve, poor fit] | 
CCOC(=O)c1c(NC(=O)CSc2nnc3c(n2)[nH]c2ccccc23)sc2c1CCN(C)C2 | inconclusive: 14.1 µM [inhibitor, full curve, poor fit] | 
CCc1ccc(NC(=O)CSc2nnc(-c3n[nH]c4ccccc34)n2-c2ccccc2)cc1 | inconclusive: 25.1 µM [inhibitor, partial curve, poor fit] | 
CCCCOC(=O)c1ccc(NC(=O)c2ccccc2OC)cc1 | inconclusive: 89.1 µM [inhibitor, partial curve, poor fit] | 
CCOC(=O)c1c(-c2ccccc2)oc2cc(Br)c(O)c(C=O)c12 | inconclusive: 79.4 µM [inhibitor, partial curve] | 
CN=c1scc(-c2cccs2)n1/N=C/c1ccc(O)c(O)c1O | inconclusive: 6.31 µM [inhibitor, full curve] | 
C=C(C)C(=O)Nc1cccc(C2=NOC3(C2)C[C@H](C(N)=O)N(C(=O)/C=C/C)C3)c1 (stereo not given in full) | active: 8.91 µM | 
COc1ccccc1C1CCN(C(=O)c2ccc(C(C)(C)C)cc2)CC1 | inconclusive: 89.1 µM [inhibitor, partial curve, poor fit] | 
CSCCC(NS(=O)(=O)c1ccc2c(c1)Cc1cc(S(=O)(=O)NC(CCSC)C(=O)O)ccc1-2)C(=O)O (stereo not given) | inconclusive: 44.7 µM [inhibitor, partial curve, poor fit] | 
CCOc1ccc(CCNC(=O)c2cc3c(-c4ccccc4F)nn(C)c3s2)cc1OCC |  | inactive: -23.3%
CC(C)(C)OC(=O)NCCCCC1=CC2=CC(=O)C(C)(O)C(=O)C2=CO1 (stereo not given) | active: 20 µM | 
CCc1ccc(/C=C2\C(=N)N3N=C(CC(=O)N4CCCCC4)SC3=NC2=O)cc1 |  | inactive: -7.38%
Cc1ccc(/C(O)=C2\C(=O)C(=O)N(CCCN3CCOCC3)C2c2ccccc2F)cc1 (stereo not given) |  | inactive: -5.06%

Structure (SMILES) | Potency | activity change, negative = inhibition
O=C(COc1coc(CN2CCN(c3ccccc3)CC2)cc1=O)Nc1ccccc1 | inconclusive: 35.5 µM [inhibitor, partial curve, poor fit] | 
CCCOc1cccc(C2c3c(oc4cc(C)c(C)cc4c3=O)C(=O)N2CCCN2CCOCC2)c1 (stereo not given) |  | inactive: -24.7%
O=S(=O)(O)c1cc(Cl)cc(N=Nc2ccc(O)cc2O)c1O | active: 12.6 µM | 
COc1ccc(/C=C2\SC(=Nc3ccccc3Cl)NC2=O)c(OC)c1 |  | inactive: -18.5%
COc1ccc(-c2nc3ccccn3c2/N=C/c2ccc(OC)c(OC)c2)cc1O | inconclusive: 25.1 µM [inhibitor, partial curve] | 
COC(=O)c1ccc(C(=O)OCc2nc3cc4ccccc4cc3[nH]2)cc1 | inconclusive: 31.6 µM [inhibitor, partial curve, poor fit] | 
CCOc1ccccc1CNC(=O)CCn1cccn1 |  | inactive: -12%
Cc1cc(-c2nnc(SCCC(=O)Nc3ccccc3)o2)no1 | inconclusive: 35.5 µM [inhibitor, single point] | 
COc1ccc(C(=O)Nc2c(N)nc(SCC(=O)Nc3ccc(NC(C)=O)cc3)[nH]c2=O)cc1 | inconclusive: 28.2 µM [inhibitor, partial curve, poor fit] | 
O=C(COC(=O)c1cc(-c2cccs2)nn1-c1ccccc1)Nc1ccc(Cl)c([N+](=O)[O-])c1 | inconclusive: 31.6 µM [inhibitor, single point] | 
COc1ccc(/C=N/NC(=O)c2ccc(O)cc2O)cc1CSc1ccccn1 | active: 14.1 µM | 
O=C(O)c1ccccc1N/N=C/c1c(Sc2nnnn2-c2ccccc2)nc2ccccn2c1=O | inconclusive: 28.2 µM [inhibitor, full curve] | 
O=C(O)CC(NC(=O)c1ccco1)c1ccco1 (stereo not given) | inconclusive: 89.1 µM [inhibitor, partial curve] | 
COc1cc(CC2COC(c3ccc(O)c(OC)c3)C2COC(C)=O)ccc1O (stereo not given) | active: 3.55 µM | 
COc1ccc(N2C(=O)CCC2=O)cc1 | inconclusive: 25.1 µM [inhibitor, single point] | 
COc1cccc(CSc2nc(-c3ccccc3OC)nc3c2Cc2c(CO)cnc(C)c2O3)c1 |  | inactive: -8.56%
O=C1Nc2ccc([N+](=O)[O-])cc2C1=Nc1cccc(CO)c1 | active: 20 µM | 
O=C(O)c1ccc(-n2ncc(Cl)c(Cl)c2=O)cc1 | active: 22.4 µM | 
Cc1ccc2c(nc3s/c(=C\c4ccc(-c5ccccc5C(=O)O)o4)c(=O)n32)c1C | active: 10 µM | 
CCOC(=O)Nc1sc2c(c1C#N)CCCC2 | inconclusive: 79.4 µM [inhibitor, partial curve, poor fit] | 
Cc1nc2ccc(NC3=NCCCCC3)cc2s1 | inconclusive: 17.8 µM [inhibitor, partial curve, poor fit] | 
